Target: T1, myotilin (full length, 498 residues) (human, UniProt Q9UBF9 1-498)
T1 construct: In the yeast two-hybrid assay, full-length myotilin was expressed as a bait (EG202) or prey (JG4-5) fusion protein; In Western blots and staining it was the endogenous muscle protein; also called full-length myotilin
T1 sequence: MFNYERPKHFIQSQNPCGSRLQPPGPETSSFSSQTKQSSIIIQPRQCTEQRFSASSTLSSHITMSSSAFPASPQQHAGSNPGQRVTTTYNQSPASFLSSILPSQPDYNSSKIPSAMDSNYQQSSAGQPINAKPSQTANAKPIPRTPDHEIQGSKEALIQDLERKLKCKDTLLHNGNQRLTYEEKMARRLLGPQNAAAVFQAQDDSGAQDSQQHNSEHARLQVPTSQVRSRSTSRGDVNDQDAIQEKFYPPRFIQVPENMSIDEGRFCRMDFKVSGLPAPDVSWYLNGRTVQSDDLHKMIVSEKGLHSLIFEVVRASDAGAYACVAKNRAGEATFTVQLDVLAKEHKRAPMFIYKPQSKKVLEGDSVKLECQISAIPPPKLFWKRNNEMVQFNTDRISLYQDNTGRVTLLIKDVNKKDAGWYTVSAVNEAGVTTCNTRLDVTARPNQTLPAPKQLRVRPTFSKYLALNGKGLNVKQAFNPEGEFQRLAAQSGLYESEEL
Test: affinity precipitation of 35S-labelled in vitro translated myotilin with GST on glutathione-Agarose
Source text: FIGS. 8A to 8E. Homotypic interaction of myotilin and association with α-actinin. (A) Domain structure of α-actinin and myotilin and the constructs used in yeast two-hybrid and in vitro binding assays. ABD=actin-binding domain, R=spectrin-like repeat, EF=EF-hand region. The grey box in myotilin indicates the serine-rich region and the loops indicate Ig-like domains. (B) A photomicrograph of the yeast two-hybrid interactions. On the left are the expressed bait fusion proteins and on the top are the prey fusion proteins. EG202=empty bait vector and JG4-5=prey vector. Color reaction is an indicator of an interaction. (C) Quantitation of β-galactoside values. The bait and prey fusion proteins are as in B. The β-galactosidase values are categorized as follows: −=<20; +=21–150; ++=151–300; +++=301–450. […] The NH_2-terminal and COOH-terminal parts of α-actinin were expressed as GST-fusion proteins, purified and bound to glutathione-Agarose beads. ^35S-labeled in vitro translated myotilin was allowed to bind GST-α-actinin fusion protein-containing beads. […]
For the in vitro binding assay, GST-α-actinin fusion proteins, ABD/R1/R2, R3/R4/EF [25] or GST alone were produced in E. coli and purified with glutathione-Agarose beads (Pharmacia). […] After washes with the same buffer, bound material was eluted by boiling in Laemmli buffer, subjected to SDS-PAGE and detected by autoradiography.

binding result: no binding
B1: GST alone (other)
chain: not shown
notes: Control protein on glutathione-Agarose beads; also called GST control

From US6458929 (LICENTIA, dated 2002)
